According to the supplement of paper PMC5655136:
Values come from read counts of a selection and are noisy.

System: NB7
Test: fold depletion of shRNA, plasmid library share / infected cells without Dox share (9 days) (ratio); higher = more depleted after infection (more toxic, leaky expression from a Tet-inducible vector; NB7 is a neuroblastoma line without caspase-8)
[1] = shRNA pool: CD95 ORF + CD95 3'UTR + Venus libraries
[2] = shRNA pool: CD95L ORF + CD95L 3'UTR + Venus libraries
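Also: shRNA barcodes quantified by deep sequencing of PCR amplicons from cellular DNA, counts expressed as percent of each subpool, ratio averaged over two biological duplicates.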

## CTTATACATAGCAATGGTAAA
[1]
  fold depletion of shRNA: 0.857

## CTTATTTTTCCCCCACCCCCG
[1]
  fold depletion of shRNA: 2.1

## CTTCAAGATCCGCCACAACAT
[1]
  fold depletion of shRNA: 1.45

## CTTCAAGGACGACGGCAACTA
[2]
  fold depletion of shRNA: 1.26
[1]
  fold depletion of shRNA: 0.969

## CTTCAAGGAGGACGGCAACAT
[2]
  fold depletion of shRNA: 1.15
[1]
  fold depletion of shRNA: 1.27

## CTTCAAGTCCGCCATGCCCGA
[2]
  fold depletion of shRNA: 1.29
[1]
  fold depletion of shRNA: 1.15

## CTTCAATTACCCATATCCCCA
[2]
  fold depletion of shRNA: 0.881

## CTTCACTTCTAAATGCATATC
[2]
  fold depletion of shRNA: 0.947

## CTTCAGAAATGAAATCCAAAG
[1]
  fold depletion of shRNA: 1.01

## CTTCATCAAGAGTAAATGCAG
[1]
  fold depletion of shRNA: 1.41

## CTTCATGGAAAGAAAGAAGCG
[1]
  fold depletion of shRNA: 0.819

## CTTCCAAATGCAGAAGATGTA
[1]
  fold depletion of shRNA: 1.46

## CTTCCACCTACAGAAGGAGCT
[2]
  fold depletion of shRNA: 2.02

## CTTCCATTTATGGAGGATTTT
[1]
  fold depletion of shRNA: 0.991

## CTTCCCTGTCCAACCTCTGTG
[2]
  fold depletion of shRNA: 1.59

## CTTCCGGGGTCAATCTTGCAA
[2]
  fold depletion of shRNA: 0.738

## CTTCCTGACAATCAACTCTAA
[2]
  fold depletion of shRNA: 4.15

## CTTCGCCCGCTACCCCGACCA
[2]
  fold depletion of shRNA: 1.27
[1]
  fold depletion of shRNA: 0.899

## CTTCGTAATTGGCATCAACTT
[1]
  fold depletion of shRNA: 1.34

## CTTCTAAATGCATATCCTGAG
[2]
  fold depletion of shRNA: 1.17

## CTTCTTACATGCATTTGAGGT
[2]
  fold depletion of shRNA: 1.34

## CTTCTTCAAGGACGACGGCAA
[2]
  fold depletion of shRNA: 4.04
[1]
  fold depletion of shRNA: 2.06

## CTTCTTCAAGTCCGCCATGCC
[2]
  fold depletion of shRNA: 2.89
[1]
  fold depletion of shRNA: 1

## CTTCTTCTTTTGCCAATTCCA
[1]
  fold depletion of shRNA: 1.54

## CTTCTTTCTCAGGCATCAAAA
[1]
  fold depletion of shRNA: 1.76

## CTTCTTTTGCCAATTCCACTA
[1]
  fold depletion of shRNA: 1.01

## CTTGAGTAAATATATCACCAC
[1]
  fold depletion of shRNA: 0.583

## CTTGCAACAACCTGCCCCTGA
[2]
  fold depletion of shRNA: 2

## CTTGCACCAAATGTGAACATG
[1]
  fold depletion of shRNA: 1.34

## CTTGCAGAGAAAATTCAGACT
[1]
  fold depletion of shRNA: 0.89

## CTTGCATAATAAGCTAAAGAG
[2]
  fold depletion of shRNA: 0.594

## CTTGCTACCTCAAGGGGGACT
[2]
  fold depletion of shRNA: 1.63

## CTTGGGGTGGCTTTGTCTTCT
[1]
  fold depletion of shRNA: 0.644

## CTTGGTAGGATTGGGCCTGGG
[2]
  fold depletion of shRNA: 0.19

## CTTGGTGCTCATCTTAATGGC
[1]
  fold depletion of shRNA: 1.78

## CTTGGTTTTTTACTGGGTACA
[1]
  fold depletion of shRNA: 0.296

## CTTGTCATACCCCCAAGTTTC
[1]
  fold depletion of shRNA: 2.06

## CTTGTGATCAATGAAACTGGG
[2]
  fold depletion of shRNA: 0.845

## CTTGTGATGTTTTTCATGGTT
[2]
  fold depletion of shRNA: 0.968

## CTTGTGTTTGGAATTATAAAA
[1]
  fold depletion of shRNA: 0.907

## CTTTAAATCCTGAAACAGTGG
[1]
  fold depletion of shRNA: 0.828

## CTTTCAGATACATGGTTGTGA
[2]
  fold depletion of shRNA: 3.54

## CTTTCCATTATGATTCTTTGT
[2]
  fold depletion of shRNA: 0.909

## CTTTCTGGAGTGAAGTATAAG
[2]
  fold depletion of shRNA: 1.01

## CTTTGAAAGTTTGTATTAAAT
[1]
  fold depletion of shRNA: 0.939

## CTTTGCACAGTTTATTGGTGT
[1]
  fold depletion of shRNA: 2.08

## CTTTGCCACCTCTCCATTTTT
[1]
  fold depletion of shRNA: 0.471

## CTTTGCCTCTAAATTACCTCT
[1]
  fold depletion of shRNA: 1

## CTTTGGAGAAGCAAATAGGCC
[2]
  fold depletion of shRNA: 1.23

## CTTTGGGATTCTTTCCATTAT
[2]
  fold depletion of shRNA: 1.76

## CTTTGTACTCTTGCAGAGAAA
[1]
  fold depletion of shRNA: 0.709

## CTTTGTATATTCCAAAGTATA
[2]
  fold depletion of shRNA: 0.374

## CTTTGTCTTCTTCTTTTGCCA
[1]
  fold depletion of shRNA: 0.794

## CTTTGTTACAGGCACCGAGAA
[2]
  fold depletion of shRNA: 2.88

## CTTTGTTCGAAAGAATGGTGT
[1]
  fold depletion of shRNA: 1.07

## CTTTGTTTATAACTCTGAGAA
[1]
  fold depletion of shRNA: 0.54

## CTTTTAACTCACCTCTCAAGG
[2]
  fold depletion of shRNA: 4.21

## CTTTTGCCAATTCCACTAATT
[1]
  fold depletion of shRNA: 1.08

## CTTTTGCTGAAATATCAGTTA
[1]
  fold depletion of shRNA: 1.19

## CTTTTTTTGTAACTCTACTGT
[1]
  fold depletion of shRNA: 0.8

## GAAAAAAAGGAGCTGAGGAAA
[2]
  fold depletion of shRNA: 0.675

## GAAAAACAACAAATTCAGTTC
[1]
  fold depletion of shRNA: 1.03

## GAAAAAGCAGCTACCAGGTGT
[2]
  fold depletion of shRNA: 1.53

## GAAAACAAACTTCATCAAGAG
[1]
  fold depletion of shRNA: 1.41

## GAAAACATGCAGAAAGCACAG
[1]
  fold depletion of shRNA: 0.558

## GAAAACATGTAATAAAAAGTA
[2]
  fold depletion of shRNA: 0.801

## GAAAACATTAAATTATAATGT
[1]
  fold depletion of shRNA: 0.906

## GAAAAGATTCTTAATAGCTGG
[1]
  fold depletion of shRNA: 0.939

## GAAAAGGAAGACTAGAGGCTT
[2]
  fold depletion of shRNA: 1.18

## GAAAAGGACACCTTTTAACTC
[2]
  fold depletion of shRNA: 0.327

## GAAAATATGGGTTGCATTTGG
[2]
  fold depletion of shRNA: 1.07

## GAAAATGTTCAATAATGTCCC
[1]
  fold depletion of shRNA: 1.35

## GAAAATTCAAACTTCAGAAAT
[1]
  fold depletion of shRNA: 0.65

## GAAAATTCAGACTATCATCCT
[1]
  fold depletion of shRNA: 3.61

## GAAACAGTGGCAATAAATTTA
[1]
  fold depletion of shRNA: 1.12

## GAAACTAACAGATAAGCAAGA
[2]
  fold depletion of shRNA: 1.15
